{"source": "paper PMC12040169", "about": "(PLOS Biology, 2025)", "note": "Some of the results follow."}
{"tested_on": "T1, C. trachomatis L2/434/Bu expressing GFP (CTL2-GFP)", "T1 construct": "L2/434/Bu GFP intracellular growth in HeLa cells", "design": "species or system HeLa; C. trachomatis total inclusion area by high-content imaging, normalised to DMSO", "details": "total inclusion area; 28.5 h, 10 µM; inhibitor", "in_short": "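Host cell viability was gauged from Hoechst-stained nuclei counts, while chlamydial growth was taken from total inclusion area and inclusion number per well. Cells were fixed and imaged by high-content microscopy once bulk GFP and resorufin fluorescence had been measured.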"}
{"compound": "CN1CCc2c1nc1ccccc1c2NC(=O)CN1CCCCCC1", "note": "[CBK278298G]", "% of control remaining": 65.8775}
{"compound": "CCOC(=O)N1CCC(NC(=O)N(Cc2cccnc2)Cc2ccc3c(c2)OCO3)CC1", "note": "[CBK158897]", "% of control remaining": 90.3164}
{"compound": "O=C(NC1CCS(=O)(=O)C1)c1cnc2c(OC(F)(F)F)cccc2c1O", "note": "(stereo not shown) [CBK304323]", "% of control remaining": 105.444}
{"compound": "OCCOc1cccc2cccnc12", "note": "[CBK001784]", "% of control remaining": 86.9255}
{"compound": "COc1ccc(-c2ncc(Oc3cccc(NC(C)=O)c3)nc2N)c(OC)c1", "note": "[CBK145087]", "% of control remaining": 80.9914}
{"compound": "COC(C)CN(C)C(=O)c1nnn(-c2ccc3ncccc3c2)c1C", "note": "(stereo not shown) [CBK304484]", "% of control remaining": 49.2802}
{"compound": "CC(=O)N1CCC2(CCCC[C@H]3CN(CC(=O)N(C)C)CC[C@@H]3NC(=O)CNC2=O)CC1", "note": "[CBK292163]", "% of control remaining": 100.448}
{"compound": "Cn1c(=O)n(C)c2cc(-c3nc4ccccc4c(=O)[nH]3)ccc21", "note": "[CBK287887]", "% of control remaining": 114.458}
{"compound": "Cc1nc(C(F)(F)F)ccc1COC(=O)N1CCOCC1", "note": "[CBK200122]", "% of control remaining": 98.4369}
{"compound": "Cc1cc(C)cc(Nc2c([N+](=O)[O-])nn(-c3cccc(Cl)c3)[n+]2[O-])c1", "note": "[CBK268254]", "% of control remaining": 92.3735}
{"compound": "Cc1nnsc1[S+]([O-])c1ccc(Br)cc1", "note": "(stereo not shown) [CBK012927]", "% of control remaining": 97.7526}
{"compound": "O=C(O)CN1C(=O)C2CCC(c3ccccc3)CC2C1=O", "note": "(stereo not shown) [CBK286952]", "% of control remaining": 123.386}
{"compound": "Cc1oc2c(CN(C)C)c(O)ccc2c(=O)c1-c1cnn(-c2ccccc2)c1", "note": "[CBK264496]", "% of control remaining": 126.472}
{"compound": "CCOC(=O)Cc1csc(NC(=O)CSc2nc3cc4c(cc3cc2C)OCO4)n1", "note": "[CBK109112]", "% of control remaining": 80.766}
{"compound": "c1ccc(COc2cccc(CNCCN3CCOCC3)c2)cc1", "note": "[CBK278226C]", "% of control remaining": 98.7746}
{"compound": "O=C(NC(c1ccccc1)c1cccnc1)C1CCN(C(=O)CN2C(=O)c3ccccc3C2=O)CC1", "note": "(stereo not shown) [CBK060515]", "% of control remaining": 77.97}
{"compound": "Cc1ccc(NC(=O)CN2C(=O)c3ccccc3C2=O)c(C(=O)O)c1", "note": "[CBK262837]", "% of control remaining": 109.652}
{"compound": "N#C/C(=C\\c1ccc(C(=O)O)cc1)C(=O)NCC1CCCO1", "note": "(stereo not shown) [CBK263228]", "% of control remaining": 34.5662}
{"compound": "N#CCCN(Cc1ccco1)C(=O)c1ccc(NC2CC2)nc1", "note": "[CBK304922]", "% of control remaining": 27.3977}
{"compound": "O=c1nc(-c2ccccc2Cl)oc2ccccc12", "note": "[CBK152263]", "% of control remaining": 130.877}
{"compound": "O=C(COc1ccc(I)cc1)N/N=C/c1cccc([N+](=O)[O-])c1", "note": "[CBK262211]", "% of control remaining": 109.493}
{"compound": "Cc1nn(C)c2nc(NCc3ccc(C(=O)N4CCCC4)cc3)sc12", "note": "[CBK307190]", "% of control remaining": 83.8944}
